Experimental data from PubChem BioAssay AID686978 (National Center for Advancing Translational Sciences (NCATS), 2013).
The campaign covered roughly 420,000 compounds. About 64,000 (15%) were called active. This list was built around the results that the source calls inconclusive (neither active nor inactive); the mix of calls is not that of the screen. Calls come from the whole dose curve; as a rule, active = well fitted inhibition curve with a large enough effect; inconclusive = small, poorly fitted or top-dose-only effect; inactive = flat fitted curve, though single readings scatter. Potencies of inconclusive entries are left out as doubtful fits.

assay: qHTS for Inhibitors of human tyrosyl-DNA phosphodiesterase 1 (TDP1): qHTS in cells in absence of CPT; conditions: DT40 Tdp1-/- hTDP1 cells, no CPT, ATP luminescence, 48 h; activity change, negative = growth inhibition: at 46.2 µM (top of the series) unless noted; note: nearly all actives have a fitted effect of over 55% in size
Outline: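 Compound effects on proliferation are scored in DT40 Tdp1-/-;hTDP1 cells in the absence of CPT. ATP levels (CellTiter-Glo luminescence) are recorded after a ≥48 hr, 37 °C incubation.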
% is set by controls: 0 for no effect and ±100 for the full control effect; potency is the fitted concentration of half-maximal effect; tags give direction and shape of the fitted curve.

Compound | Potency | activity change, negative = growth inhibition
O=S1(=O)CCO[C@H]2Cc3ccccc3[C@H]2N1Cc1ccc(F)cc1 | inconclusive [inhibitor, single point] | 
COc1cc(/C=N/NC(=O)c2cc(C)oc2C)cc(OC)c1OC | inactive | 
COC(=O)C1=NN(c2ccccc2)C2C(=O)N(c3ccccc3OC)C(=O)C12 (configuration not stated) | inactive | 
CCC(C(=O)Nc1ccc(F)cc1F)n1nc(-c2ccccc2)c2c(c1=O)CCCC2 (configuration not stated) | inconclusive [inhibitor, single point] | 
Nc1nc(NCc2ccccc2)nc(-c2ccccc2)n1 | inconclusive [inhibitor, single point] | 
COC(=O)c1ccc(N2C(=O)C3CC=CC(C)C3C2=O)cc1 (configuration not stated) | inactive | 
Cc1ccc(S(=O)(=O)N2C[C@H]3C(=O)C[C@@H](c4ccccc4)N(S(=O)(=O)c4ccc(C)cc4)[C@H]3C[C@H]2c2cccc3ccccc23)cc1 | inactive | 
c1ccc2c(c1)oc1c(-c3ccc4nccn4c3)cccc12 | inconclusive [inhibitor, single point] | 
Cc1cccc(-c2c3c(nc4c2c(=O)n(C)c(=O)n4C)-c2ccccc2C3O)c1 (configuration not stated) | active: 4.61 µM | 
CCCCCCOc1ccc(NC(=O)CC2C(=O)N(CC)C(=S)N2Cc2ccco2)cc1 (configuration not stated) | inconclusive [inhibitor, single point] | 
CCOc1ccccc1C(=O)N1CCC(C(=O)c2ccc(F)cc2)CC1 | inconclusive [inhibitor, single point] | 
CCOC(=O)C1=C(CSc2nc(-c3ccncc3)ccc2C#N)OC(N)=C(C#N)C1c1cccnc1 (configuration not stated) | inconclusive [inhibitor, partial curve, poor fit] | 
COc1ccc(N2CCN(C(c3cccc(OC)c3OC)c3nnnn3C3CCCC3)CC2)cc1 (configuration not stated) | inconclusive [inhibitor, single point] | 
COc1ccc(C/C(C)=N/NC(=O)c2cc(C)oc2C)cc1 | inactive | 
CCCN1CCC(=O)N(CCSc2ccccc2)CC1 | inconclusive [inhibitor, single point] | 
c1ccc(-c2nnc(SCC3CCCO3)nc2-c2ccccc2)cc1 (configuration not stated) | inconclusive [inhibitor, single point] | 
COc1ccc(NC(=O)CCS(=O)(=O)c2cc3c4c(c2)CCN4C(=O)CC3)cc1OC | inactive | 
CCOC(=O)c1c(NC(=O)CN2C(=O)NC(C)(c3ccc(Cl)cc3)C2=O)sc(C(=O)NC)c1C (configuration not stated) | active: 11.6 µM | 
COc1ccc(Cl)cc1S(=O)(=O)N1CCC(c2ccncc2)CC1 | inconclusive [inhibitor, single point] | 
COc1cccc(/C=C/c2nc3ccccc3c(=O)n2-c2ccc(C)c(C)c2)c1OC | active: 8.2 µM | 
O=C(c1cnccn1)N1CCC2(CC1)CCN(c1ccccn1)CC2 | inactive | 
Cc1ccc(-c2noc(CCC(=O)Nc3ccccc3N3CCN(C)CC3)n2)cc1 | inconclusive [inhibitor, single point] | 
CSCCC(NC(=O)c1ccccc1)C(=O)NCCCSc1ccccc1 (configuration not stated) | inconclusive [inhibitor, partial curve, poor fit] | 
Cc1ccc(-c2nnn(C/C(N)=N/O)n2)cc1 | inactive | 

Compound | Potency | activity change, negative = growth inhibition
Cc1sc2nc(CSCC(=O)N(C)c3ccccc3)[nH]c(=O)c2c1C | active: 16.4 µM | 
CC(=O)N1c2ccccc2CC1C(=O)N1CCN(c2cc(Cl)ccc2C)CC1 (configuration not stated) | inconclusive [inhibitor, single point] | 
COc1ccc(NC(=O)c2ccco2)cc1NC(=O)COc1cc(C)ccc1C(C)C | active: 7.31 µM | 
CC(=O)Oc1ccc(C(=O)[C@H]2[C@H]3C(=O)N(c4cccc5ccccc45)C(=O)[C@H]3[C@@H]3C=CC=NN32)cc1 | inconclusive [inhibitor, single point] | 
C/C(=N\NC(=S)Nc1ccc(C)cc1)c1cccc(N)c1 | inconclusive [inhibitor, single point] | 
CNC(=S)N(CCc1ccc(S(N)(=O)=O)cc1)C1CC(=O)N(c2ccccc2F)C1=O (configuration not stated) | inconclusive [inhibitor, partial curve, poor fit] | 
CN(C)CC(C)(O)c1ccc2c(c1)CN(C(=O)c1ccc(-n3cccn3)cc1)CCO2 (configuration not stated) | inactive | 
COc1ccc(-c2nnc(SCC(=O)Nc3ccc(C)c(Cl)c3)nc2-c2ccc(OC)c(OC)c2)cc1OC | inconclusive [inhibitor, single point] | 
COc1ccc(NC(=O)COc2ccccc2C#N)c(S(=O)(=O)N2CCCCC2)c1 | inconclusive [inhibitor, partial curve, poor fit] | 
CCN(CC)S(=O)(=O)c1ccc(S(=O)(=O)Nc2c(C)nn(C)c2C)cc1 | active: 4.61 µM | 
CCOc1ccc(NC(=O)c2c(NC(=O)c3ccncc3)sc3c2CCC(C(C)(C)C)C3)cc1 (configuration not stated) | active: 20.6 µM | 
COc1ccc(N2CCN(CCCNC(=O)c3ccc(CS(=O)(=O)c4ccc(Cl)cc4)o3)CC2)cc1 | active: 20.6 µM | 
O=C(NC1CCCCC1)C(c1cccc2ccccc12)n1c(=O)c(-c2ccco2)nc2ccccc21 (configuration not stated) | active: 23.1 µM | 
Cc1ccc(Sc2ccc(CN3CCCCC3)cc2[N+](=O)[O-])cc1 | inconclusive [inhibitor, single point] | 
O=C(CNc1cccc2ccccc12)N/N=C/C=C/c1ccco1 | inconclusive [inhibitor, single point] | 
COCCCn1c(SCC(=O)N2CCCC2=O)nc2ccccc2c1=O | inactive | 
O=c1c2ccccc2nc2n1C(CSCc1ccc(Cl)cc1)CS2 (configuration not stated) | active: 16.4 µM | 
CCC(C)(C)NC(=O)C(c1ccc(OC)cc1)N(C(=O)CCC(=O)Nc1cc(C)on1)c1ccc(F)cc1 (configuration not stated) | inconclusive [inhibitor, single point] | 
O=C(c1cccn1-c1nnc(N2CCCC2)s1)N1CCN(c2ccc(F)cc2)CC1 | active: 18.4 µM | 
O=C(NCCc1ccccc1)C(=O)NCCC1CCCCN1S(=O)(=O)c1ccccc1 (configuration not stated) | inconclusive [inhibitor, partial curve, poor fit] | 
O=C(CSc1nnc(-c2cccs2)n1-c1cccc(Cl)c1)c1cccc2c1OCCO2 | active: 16.4 µM | 
CC(=O)Nc1ccc(NC(=O)CN2C(=O)CCc3cc(S(=O)(=O)N4CCCCC4)ccc32)cc1 | inactive | 
COc1cc(OC)c(NS(=O)(=O)c2cc3[nH]c(=O)c(=O)[nH]c3cc2C)cc1Cl | inactive | 
O=C(Cn1cc(SCc2ccc(Cl)cc2)c2ccccc21)N1CCCC1 | inconclusive [inhibitor, single point] | 

Compound | Potency | activity change, negative = growth inhibition
COc1ccccc1NC(=O)CSc1n[nH]c(-c2ccco2)n1 | inactive | 
Cc1nc2ncnn2c(C)c1Cc1c(Cl)cccc1Cl | inconclusive [inhibitor, single point] | 
C=CCn1c(-c2cc3cccc(OC)c3o2)n[nH]c1=S | inconclusive [inhibitor, single point] | 
CC(C)CC(N)c1csc(NC(=O)Nc2ccccc2C(C)(C)C)n1 (configuration not stated) | inconclusive [inhibitor, single point] | 
Cc1ccc(C(=O)NCCCNC(=O)COc2ccc(Cl)c(C)c2)cn1 | inconclusive [inhibitor, single point] | 
Cn1c(=O)[nH]c2nnc(-c3ccc(Cl)c(Cl)c3)nc2c1=O | inactive | 
COc1ccc(OC2(C)CCN(Cc3ccccc3OC(F)F)C2)cc1 (configuration not stated) | inconclusive [inhibitor, partial curve] | 
C=CCn1c(-c2ccco2)n[nH]c1=S | inactive | 
O=C(NCC(=O)N1CCN(c2ccccc2)CC1)c1ccccc1 | inactive | 
CN(CC(=O)Nc1ccc(Cl)c(Cl)c1)CC(=O)N1CCCCCC1 | active: 25.9 µM | 
COc1ccccc1N1CCN(C(CNS(=O)(=O)c2cc(F)ccc2F)c2cccnc2)CC1 (configuration not stated) | inactive | 
CCN(Cc1ccccc1)C(=O)c1cccc(S(=O)(=O)N2CCN(c3ccccc3)CC2)c1 | active: 20.6 µM | 
N#CC1(C#N)CC(C=O)=C(N)C1(C#N)CC(=O)c1ccc(F)cc1 (configuration not stated) | inconclusive [inhibitor, partial curve, poor fit] | 
CC(C(=O)O)c1ccc(-c2ccccc2)c(F)c1 (configuration not stated) | inactive | 
O=C1CC(c2cccc(F)c2)c2c(c3ccccc3[nH]c2=O)O1 (configuration not stated) | inactive | 
O=C(Nc1ccc(F)cc1)Nc1nnc(SCC(=O)N2CCCCC2)s1 | active: 3.26 µM | 
N=C(N)c1ccc(OCCCOc2ccc(C(=N)N)cc2Br)c(Br)c1 | active: 3.76 µM | 
O=C(O)CSc1nc2sc3c(c2c(=O)n1Cc1ccccc1)CCCCC3 |  | inconclusive: -30.1% [inhibitor]
COc1ccc(C2CCCN2C(=S)Nc2ccc(C)c(C)c2)cc1OC (configuration not stated) | inconclusive [inhibitor, partial curve, poor fit] | 
CC(=O)Oc1ccccc1C(=O)N(C1CCCCC1)C1CCCCC1 | active: 13 µM | 
COc1ccc(S(=O)(=O)N(C)c2ccc(C(=O)NC3CCCC3)cc2)cc1 | inactive | 
Cn1c(=O)c2c(nc(CN3CCCCC3)n2CCCc2ccccc2)n(C)c1=O | inconclusive [inhibitor, single point] | 
CCCC1OC2CC3C4CCC5=CC(=O)C=CC5(C)C4C(O)CC3(C)[C@]2(C(=O)CO)O1 (some centres not stated) | inconclusive [inhibitor, single point] | 
COCCn1c(SCC(=O)Nc2ccc3c(c2)OCCO3)nc2ccccc2c1=O | inconclusive [inhibitor, single point] | 
